{"source": "PubChem BioAssay (NCATS)", "note": "Several values for one entry are separate records, joined by “and”; a condition that tells them apart may be missing. Identical values can stand only once. Inconclusive results, whose numbers are uncertain, are shown with a selection of clear calls. Potencies beside an inconclusive call are fits to weak or partial responses and may not hold up. Activity calls are given as the source filed them. Calls follow the shape of the dose curve; as a rule, active = well fitted inhibition curve with a large enough effect; inconclusive = small, poorly fitted or top-dose-only effect; inactive = no such curve, though single readings can be large or run the other way. Potency is read from the fitted curve at half-maximal effect; tags tell the direction and shape of the fitted curve.", "data": [{"test": "qHTS Screen of the MIPE 4.0 Collection Against Ewings Sarcoma (EW8) (AID 1259255); also: nearly all actives have a fitted effect of over 35% in size", "conditions": "EW8 Ewing sarcoma viability, CellTiter-Glo, 48 h; series mostly up to 45.8 µM", "outline": "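After a 4 h attachment period in RPMI/5% FBS, cells were pin-dosed with test compounds; DMSO served as negative and 9.2 uM bortezomib (final) as positive control. Luminescent CellTiter-Glo signal at 48 h defined viability.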", "values": [{"smiles": "CC(C)[C@H](CO)Nc1nc(Nc2ccc(C(=O)O)c(Cl)c2)c2ncn(C(C)C)c2n1", "Potency": "inconclusive: 0.105 µM [inhibitor, partial curve, poor fit]"}, {"smiles": "CC(C)(C(=O)NCC(F)(F)C(F)(F)F)C(=O)N[C@@H]1C(=O)Nc2ccccc2-c2ccccc21", "Potency": "inconclusive: 23.5 µM [inhibitor, single point]"}, {"smiles": "O=c1cc(CN2CCOCC2)occ1OCCCCCSc1ccnc2cc(C(F)(F)F)ccc12", "Potency": "inconclusive: 23.5 µM [inhibitor, single point]"}, {"smiles": "N[C@H](CSC(c1ccccc1)(c1ccccc1)c1ccccc1)C(=O)O", "Potency": "inconclusive: 33.2 µM [inhibitor, single point]"}, {"smiles": "CCCn1c(=O)c2[nH]c(C34CC5CC3C[C@@H](C5)C4)nc2n(CCC)c1=O", "Potency": "inconclusive: 18.7 µM [inhibitor, partial curve, poor fit]"}, {"smiles": "COCCCN1CCC(NC(=O)c2cc(Cl)c(N)c3c2OCC3)CC1", "Potency": "inconclusive: 33.2 µM [inhibitor, single point]"}, {"smiles": "O=C1CCc2ccc(OCCCCN3CCN(c4cccc(Cl)c4Cl)CC3)cc2N1", "Potency": "inconclusive: 26.4 µM [inhibitor, single point]"}, {"smiles": "CNCc1ccc(-c2[nH]c3cc(F)cc4c3c2CCNC4=O)cc1", "Potency": "inconclusive: 23.5 µM [inhibitor, single point]"}, {"smiles": "Cc1cc(C(C)(C)C)c(O)c(C)c1CC1=NCCN1", "Potency": "inconclusive: 33.2 µM [inhibitor, single point]"}, {"smiles": "O=C(O)c1cccc(-c2noc(-c3ccccc3F)n2)c1", "Potency": "inconclusive: 20.9 µM [inhibitor, single point]"}, {"smiles": "CC(C)C(=O)Nc1ncc(-c2cc(C(F)F)nn2-c2c(Cl)cccc2Cl)s1", "Potency": "inconclusive: 37.2 µM [inhibitor, single point]"}, {"smiles": "Cc1ccccc1C(C(=O)NC1CCCC1)N(C(=O)Cn1cnc2ccccc21)c1cccc(F)c1", "note": "(configuration not stated)", "Potency": "inconclusive: 23.5 µM [inhibitor, single point]"}, {"smiles": "COc1cc(Oc2ccnc3cc(OC)c(OC)cc23)ccc1NC(=O)NC(C)c1nccs1", "note": "(configuration not stated)", "Potency": "inconclusive: 29.6 µM [inhibitor, single point]"}, {"smiles": "O=C(N[C@@H](c1ccccc1)[C@@H]1CCCCN1)c1cccc(C(F)(F)F)c1Cl", "Potency": "inconclusive: 26.4 µM [inhibitor, single point]"}, {"smiles": "CC1Cc2ccccc2N1NC(=O)c1ccc(Cl)c(S(N)(=O)=O)c1", "note": "(configuration not stated)", "Potency": "inconclusive: 37.2 µM [inhibitor, single point]"}, {"smiles": "Cc1ccc(F)c(NC(=O)Nc2ccc(-c3cccc4[nH]nc(N)c34)cc2)c1", "Potency": "inconclusive: 33.2 µM [inhibitor, single point]"}, {"smiles": "O=c1[nH]cc(F)c(=O)[nH]1", "Potency": "inconclusive: 7.43 µM [inhibitor, full curve]"}, {"smiles": "Oc1ccc2ccccc2c1SSc1c(O)ccc2ccccc12", "Potency": "inconclusive: 33.2 µM [inhibitor, single point]"}, {"smiles": "C[C@@H]1CN(Cc2ccc(F)cc2)[C@@H](C)CN1C(=O)c1cc2c(C(=O)C(=O)N(C)C)cn(C)c2cc1Cl", "Potency": "active: 23.5 µM"}, {"smiles": "N#Cc1ccc(NC(=O)Nc2ccccc2Br)c2n[nH]nc12", "Potency": "inconclusive: 37.2 µM [inhibitor, single point]"}, {"smiles": "Clc1ccc(C(Cn2ccnc2)OCc2ccc(Sc3ccccc3)cc2)c(Cl)c1", "note": "(configuration not stated)", "Potency": "inconclusive: 37.2 µM [inhibitor, single point]"}, {"smiles": "COc1cc(Nc2ncc(F)c(Nc3ccc4c(n3)NC(=O)C(C)(C)O4)n2)cc(OC)c1OC", "Potency": "inconclusive: 0.59 µM [inhibitor, full curve, poor fit]"}, {"smiles": "CNC(=O)c1ccc(C)c(-n2c(C)cc(OCc3ccc(F)cc3F)c(Br)c2=O)c1", "Potency": "inconclusive: 23.5 µM [inhibitor, single point]"}, {"smiles": "O=C(Nc1ccc(F)c(C(F)(F)F)c1)Nc1nnc(-c2ccncc2)s1", "Potency": "inconclusive: 33.2 µM [inhibitor, single point]"}, {"smiles": "Cc1cccc(Nc2nc(-c3ccncc3)cs2)c1", "Potency": "inconclusive: 26.4 µM [inhibitor, single point]"}, {"smiles": "COc1ccc([C@@H]2CC(=O)c3c(O)cc(O[C@@H]4O[C@H](CO[C@@H]5O[C@@H](C)[C@H](O)[C@@H](O)[C@@H]5O)[C@@H](O)[C@H](O)[C@@H]4O)cc3O2)cc1O", "Potency": "inactive and inconclusive: 33.2 µM [inhibitor, single point]"}, {"smiles": "COC(=O)Nc1ccc(-c2nc(N3CCOCC3)c3cnn(C4CCN(C(=O)OC)CC4)c3n2)cc1", "Potency": "active: 0.148 µM"}]}]}
